Laboratory results reported in paper PMC4336329 (PLoS ONE, 2015).
Out of some 310,000 compounds screened, about 14,000 (4.5%) showed an effect of 50% or more. Effects have a minus sign here. Some of the results follow.

molecular target: human ether-à-go-go-related gene (hERG) potassium channel (human, UniProt Q12809); assay: primary screen, population patch clamp on CHO cells stably expressing hERG
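Note: peak tail current of the secondary pulse compared with the same well before compound.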

Chain of human ether-à-go-go-related gene (hERG) potassium channel (Q12809 whole entry, looked up): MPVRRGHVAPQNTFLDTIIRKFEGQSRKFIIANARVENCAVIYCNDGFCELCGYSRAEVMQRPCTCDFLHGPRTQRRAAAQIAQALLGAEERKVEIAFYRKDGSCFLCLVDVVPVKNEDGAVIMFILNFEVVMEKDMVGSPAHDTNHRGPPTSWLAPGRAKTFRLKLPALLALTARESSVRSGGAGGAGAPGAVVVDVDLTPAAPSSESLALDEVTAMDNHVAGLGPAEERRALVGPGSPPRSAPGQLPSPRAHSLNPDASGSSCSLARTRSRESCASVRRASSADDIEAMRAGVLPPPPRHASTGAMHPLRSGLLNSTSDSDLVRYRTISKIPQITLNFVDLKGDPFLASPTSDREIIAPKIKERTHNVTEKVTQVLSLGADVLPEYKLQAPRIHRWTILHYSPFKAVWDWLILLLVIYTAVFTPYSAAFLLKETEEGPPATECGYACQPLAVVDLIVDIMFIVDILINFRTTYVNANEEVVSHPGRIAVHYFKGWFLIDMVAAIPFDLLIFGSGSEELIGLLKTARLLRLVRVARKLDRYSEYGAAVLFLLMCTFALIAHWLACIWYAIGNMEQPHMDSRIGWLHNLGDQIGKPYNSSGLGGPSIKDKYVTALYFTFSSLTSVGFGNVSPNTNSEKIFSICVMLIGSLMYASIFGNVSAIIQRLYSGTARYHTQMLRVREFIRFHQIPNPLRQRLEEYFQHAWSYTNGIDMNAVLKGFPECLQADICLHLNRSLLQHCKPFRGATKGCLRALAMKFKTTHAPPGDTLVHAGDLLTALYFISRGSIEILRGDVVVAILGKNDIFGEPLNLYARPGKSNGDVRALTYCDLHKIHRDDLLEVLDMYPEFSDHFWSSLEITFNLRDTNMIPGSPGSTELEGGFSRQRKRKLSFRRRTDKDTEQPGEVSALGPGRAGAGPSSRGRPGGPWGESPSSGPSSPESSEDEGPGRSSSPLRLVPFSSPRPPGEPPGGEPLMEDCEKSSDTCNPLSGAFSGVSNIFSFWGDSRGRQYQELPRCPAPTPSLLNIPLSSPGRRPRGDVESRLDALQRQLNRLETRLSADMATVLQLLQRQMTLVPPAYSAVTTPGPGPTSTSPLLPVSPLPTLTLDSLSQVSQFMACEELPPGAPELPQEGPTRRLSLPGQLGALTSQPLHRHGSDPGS

| Compound | hERG current change (%, negative = inhibition) at 10uM [%] |
| --- | --- |
| CN(C)CCNC(=O)c1cccc(S(=O)(=O)Nc2ccc(F)cc2)c1.Cl | 15 |
| Cc1ccc2occ(CN3CCN(Cc4ccccc4)CC3)c(=O)c2c1 | -45.9 |
| O=C(O)c1ccc(CSc2nnnn2C2CCCCC2)cc1 | -10.1 |
| CC(NC(=O)c1ccc(NC2=NC3CS(=O)(=O)CC3S2)cc1)c1ccccc1 (centres unmarked) | 12.9 |
| O=C(O)c1nn(CCOc2ccc(Br)cc2)c(=O)c2ccccc12 | -5.9 |
| CN1C(=O)[C@H]2[C@@H](/C=C/c3ccccc3)N3C(=O)CN(Cc4ccc(-c5ccccc5)cc4)C(=O)[C@@]3(Cc3ccccc3)[C@H]2C1=O | -19.6 |
| O=C(Nc1ccc(Cl)cc1)N1CCN(c2ncccn2)CC1 | -13.2 |
| COc1cc(/C=N/NC(=O)c2cnccn2)cc(OC)c1OC | 0.907 |
| Cc1ccc(NC(=O)C2=CC(c3cccs3)=NS(=O)(=O)N2C)cc1 | 3.24 |
| O=C1C2C3C=CC(C3)C2C(=O)N1c1nccs1 (centres unmarked) | 39.3 |
| COc1ccc(C(=O)N2CCCCCC2)cc1S(=O)(=O)N1CCOCC1 | 12.7 |
| CN(C)c1cccc(C(=O)N/N=C/c2ccccc2F)c1 | 19.2 |
| CCc1cc(-c2[nH]ncc2-c2ccc3c(c2)OCO3)c(O)cc1O | -9.25 |
| CS(=O)(=O)c1nc(S(=O)(=O)c2ccc(Cl)cc2)c(N2CCC(C(N)=O)CC2)s1 | -61.8 |
| COc1ccc(Nc2nc(C)cc(C)c2C(N)=O)c(OC)c1 | -1.14 |
| O=c1c2[nH]c3ccccc3c2ncn1CCCn1ccnc1 | -41.8 |
| Cc1c(NC(=O)c2ccc(CN3CCc4ccccc4C3)cc2)c(=O)n(-c2ccccc2)n1C | 0.767 |
| O=Cc1c(C(=O)O)n(CC(=O)O)c2ccccc12 | 7.72 |
| CC(C)=CCC(C)(C)CNC(=O)NC1CCCCC1 | -7.09 |

| Compound | hERG current change (%, negative = inhibition) at 10uM [%] |
| --- | --- |
| Cc1cc(C)c2c(CC(=O)NCc3ccco3)coc2c1 | -13.5 |
| O=C(O)c1cc([N+](=O)[O-])ccc1N1CCC(Cc2ccccc2)CC1 | -4.42 |
| CC(=O)c1ccc(OCCOc2ccc([N+](=O)[O-])cc2)cc1 | -57.6 |
| O=C(Nc1ccc2c(c1)CCC2)Nc1ccccc1F | -61.6 |
| O=C(NCCO)Nc1ccc2nsnc2c1 | -5.93 |
| COc1ccc(C2=NOC(COc3ccc([N+](=O)[O-])cc3)C2)cc1 (centres unmarked) | -12.9 |
| O=[N+]([O-])c1cc(S(=O)(=O)c2ccc(N3CCCCC3)c([N+](=O)[O-])c2)ccc1N1CCCCC1 | 1.26 |
| CCCC(=O)NC(c1ccccc1Cl)c1ccc2cccnc2c1O (centres unmarked) | 10.1 |
| Nc1nc(SCC(=O)NCCO)nc2sc3c(c12)CCCC3 | -21.7 |
| CCN(CC)S(=O)(=O)c1ccc2c(c1)nc(SCC(N)=O)n2-c1ccc(OC)cc1 | -77.7 |
| O=C(Nc1ccc(NC(=O)c2ccc(S(=O)(=O)c3ccccc3)cc2)cc1)c1ccccc1 | 12.7 |
| CCNC(=S)NNC(=O)c1cccn(Cc2ccc(Cl)cc2Cl)c1=O | -25.1 |
| CCC(=O)NC(Nc1nc(C)cs1)(C(=O)OC)C(F)(F)F (centres unmarked) | 6.69 |
| Cc1ccc(Cn2c(=N)c(C(=O)NC3CCCCC3)cc3c(=O)n4ccccc4nc32)cc1 | -65.7 |
| CC(=O)N1CCN(C2=NC(=O)/C(=C\c3cccs3)S2)CC1 | -37.1 |
| Cc1nnc2ccc(-c3ccc(NS(=O)(=O)c4ccc(F)cc4F)cc3)nn12 | -25.2 |
| O=C(O)CCC(NC(=O)c1ccc(Cl)cc1)C(=O)O (centres unmarked) | 15.3 |
| O=C(NCC1CCCO1)c1cc(S(=O)(=O)N2CCOCC2)ccc1Cl (centres unmarked) | 16.5 |
| O=C(c1ccco1)n1nc(-c2ccccc2)nc1NCc1ccco1 | 1.93 |

| Compound | hERG current change (%, negative = inhibition) at 10uM [%] |
| --- | --- |
| COCc1cc(=O)n2[nH]c(-c3ccccc3)cc2n1 | -4.85 |
| Cc1nn(-c2ccccc2)c2sc(C(=O)OCc3nnc(-c4ccccc4)o3)cc12 | -0.735 |
| O=C(O)c1cc(-c2ccc(N3CCOCC3)cc2)nn1-c1ccc(F)cc1F | 12.7 |
| O=C(Nc1ccnn1C1CCN(CC(O)CO)CC1)C1CCCC1 (centres unmarked) | 11.4 |
| CNC(=O)COc1ccc(S(=O)(=O)Nc2ccccc2)cc1 | 14.4 |
| O=C(OCC(=O)N1CCCC1)c1c(Cl)ccc(Cl)c1Cl | -9.3 |
| CCCn1c(=O)c(C(=O)NNS(=O)(=O)c2ccc(Cl)cc2)c(O)c2ccccc21 | -11.3 |
| COc1ccc(NC(=O)CSc2nc3ccccc3c(=O)n2CCCC(=O)NCC2CCCO2)c(OC)c1 (centres unmarked) | -33.8 |
| CN(C)c1ccc(NC(=O)c2ccc3nc[nH]c3c2)cc1 | 17.7 |
| CC1CCCCN1CC(=O)Nc1ccc(Oc2ccccc2)cc1.Cl (centres unmarked) | -50.7 |
| Cc1cc(C)n(C(=O)CNC(=O)c2cccc(Br)c2)n1 | -22.6 |
| CC(NC(=O)c1ccccc1NC(=O)c1ccccc1)C(=O)N1CCOCC1 (centres unmarked) | -12.2 |
| Cl.Cn1c2c(c3ccccc31)CCN1CCC[C@]21c1ccccc1 | -60.7 |
| CCOc1ccc(NC(=O)CSc2nnc(Cn3cnc([N+](=O)[O-])n3)n2C)cc1 | 12.9 |
| COc1ccc(N(C)C(=O)c2cn(C)c(=O)c3cc(OC)c(OC)cc23)cc1 | 21.1 |
| O=C(CCCN1C(=O)/C(=C\c2cccs2)SC1=S)Nc1cccnc1 | 13.1 |
| O=C(N/N=C/c1cc(O)ccc1Br)c1cccnc1 | 12.4 |
| C=CCC1NS(=O)(=O)O[C@H](CCCC)[C@@H]1O (some centres unmarked) | 7.06 |
